# In PMC4336329 (PLoS ONE, 2015):
# Out of some 310,000 compounds screened, about 2,200 (0.71%) showed an effect of 50% or more. Effects have a minus sign here. This is one part of the list.
# Target: human ether-à-go-go-related gene (hERG) potassium channel (human, UniProt Q12809)
# Test: primary screen, population patch clamp on CHO cells stably expressing hERG
# Chain of human ether-à-go-go-related gene (hERG) potassium channel (Q12809 whole entry, looked up): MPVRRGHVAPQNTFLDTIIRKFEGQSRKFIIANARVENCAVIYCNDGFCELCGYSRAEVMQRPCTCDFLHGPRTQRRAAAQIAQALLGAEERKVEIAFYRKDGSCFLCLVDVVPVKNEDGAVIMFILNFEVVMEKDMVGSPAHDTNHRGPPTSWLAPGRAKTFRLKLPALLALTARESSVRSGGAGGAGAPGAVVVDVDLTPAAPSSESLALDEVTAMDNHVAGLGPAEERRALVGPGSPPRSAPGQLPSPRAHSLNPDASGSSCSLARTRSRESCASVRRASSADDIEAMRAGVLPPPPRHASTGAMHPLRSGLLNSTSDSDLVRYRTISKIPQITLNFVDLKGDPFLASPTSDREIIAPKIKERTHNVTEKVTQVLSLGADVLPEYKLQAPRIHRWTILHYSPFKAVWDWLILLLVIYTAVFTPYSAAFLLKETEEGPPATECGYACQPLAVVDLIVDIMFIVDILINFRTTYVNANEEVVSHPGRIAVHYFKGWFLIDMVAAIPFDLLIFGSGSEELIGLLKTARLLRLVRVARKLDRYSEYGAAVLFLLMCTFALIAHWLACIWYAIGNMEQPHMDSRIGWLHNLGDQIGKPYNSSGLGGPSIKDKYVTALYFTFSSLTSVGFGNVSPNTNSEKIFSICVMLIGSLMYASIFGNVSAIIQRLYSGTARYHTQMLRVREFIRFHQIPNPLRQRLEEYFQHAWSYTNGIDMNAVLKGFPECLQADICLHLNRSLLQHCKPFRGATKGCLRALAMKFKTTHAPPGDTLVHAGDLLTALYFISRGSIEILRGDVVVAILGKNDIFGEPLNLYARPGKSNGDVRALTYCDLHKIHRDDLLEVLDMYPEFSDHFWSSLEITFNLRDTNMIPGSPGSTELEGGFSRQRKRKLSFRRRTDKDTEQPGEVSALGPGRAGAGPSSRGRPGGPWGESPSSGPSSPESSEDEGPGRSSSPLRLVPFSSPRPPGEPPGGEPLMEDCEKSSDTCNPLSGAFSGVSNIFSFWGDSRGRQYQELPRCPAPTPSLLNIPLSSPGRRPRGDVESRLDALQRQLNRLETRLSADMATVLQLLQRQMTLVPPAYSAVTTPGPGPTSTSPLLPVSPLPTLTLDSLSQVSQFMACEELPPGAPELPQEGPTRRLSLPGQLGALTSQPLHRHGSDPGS
row,Compound,"hERG current change (%, negative = inhibition) at 1uM"
1,COCCN(C(=O)COC(=O)Cc1ccccc1)c1c(N)n(Cc2ccccc2)c(=O)[nH]c1=O,9.85%
2,CSCC[C@H](NC(=O)c1cccnc1)c1nnc2ccccn12,-2.48%
3,COc1ccc([C@H]2CC(=O)C=C(c3ccc4ccccc4c3)C2)cc1OC,13%
4,Fc1ccc(C2=CCN(C(c3cccs3)c3nnnn3CCc3ccccc3)CC2)cc1 (centres unmarked),16.3%
5,CCC1CCCCN1CCCNC(=O)C1CCCN(c2ncnc3c2nc2n3CCCCC2)C1 (centres unmarked),14.4%
6,CC(C)(C)NC(=O)NC(=O)COC(=O)COc1ccc2c(c1)CCC2,-7.36%
7,CC12CN3CCN(CC(C3)/C1=N/NC(=O)Nc1ccccc1)C2,19.6%
8,CCN(CC(=O)Nc1c(F)cccc1F)C(=O)CCOc1ccc(C)cc1,2.42%
9,COC(=O)c1sccc1NC(=O)Nc1cccc(Cl)c1Cl,11%
10,Cc1cc(C)c(NC(=O)CN2CCCCCC2)c(C)c1,8.43%
11,COc1ccc(NC(=O)CSc2ccc3c(c2)OCCO3)cc1OC,5.63%
12,Cc1ccc(CNC(=O)CNS(=O)(=O)c2ccc3c(c2)C(C)(C)C(=O)N3C)cc1,8.57%
13,CC1CCN(C(=O)C2CCC(C)(C(=O)O)C2(C)C)CC1 (centres unmarked),10.2%
14,CCCCN1C(=O)N(C)C2NC(=S)NC21 (centres unmarked),13.4%
15,O=C([C@H](Cc1ccccc1)N1C(=O)c2ccccc2C1=O)N1CCOCC1,10.9%
16,COCCN(Cc1cc2cc3c(cc2nc1Cl)OCO3)C(=O)Nc1ccc(F)cc1,9.44%
17,Cn1nc(C(=O)OCC(=O)Nc2ccc3ccccc3c2)c2ccccc2c1=O,2.42%
18,FC(F)(F)c1cccc(Oc2nc(-c3ccccc3)nnc2C(F)(F)F)c1,-5.31%
19,NC(=NC(=O)c1ccc(OC(F)(F)F)cc1)c1ccc(C(F)(F)F)cn1,10.5%
20,Cc1cc(OC(C)C(=O)NCCCN2CCOCC2)ccc1Cl (centres unmarked),-24.7%
21,COC(=O)c1c(C)cc(C)n2c1nc1ccccc12,-2.41%
22,CCN(CC(=O)NCc1ccc(Cl)cc1)C(=O)COc1ccc(Cl)cc1Br,-6.44%

row,Compound,"hERG current change (%, negative = inhibition) at 1uM"
1,COC(=O)C(C)Sc1nc(NCc2ccccc2)nc(N(C)C)n1 (centres unmarked),3.93%
2,Cc1ccc(-n2nnnc2CS(=O)(=O)c2ccccc2)c(C)c1,17.6%
3,CCN(CC)CCN=C1CCCc2ccccc2N1,1.06%
4,CN(CC(=O)Nc1ccc(N2CCOCC2)cc1)C(=O)CCNC(=O)c1ccc(Br)cc1,10.3%
5,Cc1ccc(C(=O)N/N=C(/CC(=O)c2cccs2)C(F)(F)F)cc1,8.14%
6,Cc1ccc(NC(=O)C2CCCN(S(=O)(=O)c3cnc[nH]3)C2)cc1F (centres unmarked),8.33%
7,Cn1ccc(C(=O)NC(=S)N2CCSCC2)n1,4.99%
8,O=C(CN1CCN(c2ccccc2F)CC1)c1ccc2c(c1)OCO2,9.85%
9,COc1ccccc1Cn1c(=S)[nH]c2cc(C(=O)NCC3CCCO3)ccc2c1=O (centres unmarked),15.9%
10,Cc1onc(-c2c(Cl)cccc2Cl)c1C(=O)Nc1nccs1,13.7%
11,CCOC(=O)N1CCN(C2=C(NS(=O)(=O)c3ccc(C)cc3)C(=O)c3ccccc3C2=O)CC1,29%
12,CCn1c(SCC(=O)NC2CC2)nnc1-c1csc(C)c1,17%
13,Cc1cccc(S(=O)(=O)Nc2nc3ccccc3nc2NCC2CCCO2)c1 (centres unmarked),14%
14,CC[C@@H](C)[C@H](NC(=O)OC(C)(C)C)c1nnc(S(=O)(=O)Cc2cc(C)ccc2C)o1,12.2%
15,O=C(N/N=C/c1ccc[nH]1)c1ccccc1OCc1ccccc1Cl,9.26%
16,CCOC(=O)N1CCN(C(=O)CS(=O)(=O)c2cn(Cc3ccccc3C)c3ccccc23)CC1,6.36%
17,COC(=O)C1=C(CS(=O)(=O)c2cc(OC)ccc2OC)NC(=O)NC1c1ccc(O)c(OC)c1 (centres unmarked),0.397%
18,Cc1ccc(CNC(=O)C2CCN(c3nnc(N4CCCC4=O)s3)CC2)cc1,12.5%
19,CCn1c(Cc2ccccc2)nnc1SCc1ccc([N+](=O)[O-])cc1,-8.03%
20,CC(=O)Nc1ccc(OCC(O)Cn2c(C)nc3ccccc32)cc1 (centres unmarked),4.43%
21,FC(F)(F)c1ccc(CN2C[C@@H]3C(c4ccc(C(F)(F)F)cc4)C4(c5cccnc5)CC3(C4)[C@H]2c2ccccc2)cc1 (some centres unmarked),17.1%
22,Cc1ccc(N=Cc2c(O)[nH]c3ccccc23)c([N+](=O)[O-])c1,-0.0231%

row,Compound,"hERG current change (%, negative = inhibition) at 1uM"
1,Cc1cc(NC(=O)Cc2ccc(Br)cc2)no1,15.5%
2,CCOC(=O)c1ccc(NC(=S)N(Cc2cccnc2)Cc2ccco2)cc1,7.3%
3,CCOc1ccc(NC(=S)NCCN2CCN(Cc3ccccc3)CC2)cc1,-34.2%
4,O=C(O)Cc1csc(-c2cccc(Oc3ccccc3)c2)n1,4.68%
5,O=C(CSc1nnc2ccccn12)Nc1ccccc1C(=O)NC1CC1,7.28%
6,O=C(NC(=S)Nc1ccc(C(F)(F)F)cc1)c1csnn1,10.2%
7,CCN1CCN(C(=S)Nc2cccc([N+](=O)[O-])c2)CC1,-1.13%
8,O=C(NCCOC(=O)c1ccc(Cl)c(S(=O)(=O)N2CCCCC2)c1)c1ccncc1,-0.852%
9,O=C(N/N=C/c1ccncc1)c1cc2c(ccc3ccccc32)o1,12.4%
10,COc1ccc(-c2nc3ncccc3o2)cc1NC(=O)c1cccs1,2.4%
11,COc1ccccc1C(=O)NC(=O)COC(=O)c1cccc(NC(C)=O)c1,6.4%
12,CCOc1ccccc1N1C(=O)CN(Cc2ccc(OC)c(OC)c2)C1=S,18.8%
13,O=C(NC(=S)NCc1ccco1)c1ccccc1,12.5%
14,CC1Cc2ccccc2N1C(=O)CN(C)S(=O)(=O)c1cccc2cccnc12 (centres unmarked),6.07%
15,COc1ccc(CNC(=O)CCS(=O)(=O)c2ccc(Br)cc2)cc1,12.7%
16,Br.COc1ccc(Nc2nc(-c3sc(C)nc3C)cs2)cc1,11.4%
17,O=C1CCC2S/C(=C/Nc3ccc(C(F)(F)F)cc3)C(=O)N12 (centres unmarked),-22.1%
18,COc1ccc(Cn2nnnc2CN2CCN(c3ccc(OC)cc3)CC2)cc1,4.25%
19,O=c1[nH]c2cc3c(cc2cc1CN(Cc1cccnc1)C(=S)NCc1ccco1)OCCO3,18.5%
20,O=C(NCCc1ccccc1)c1cc(S(=O)(=O)N2CCCC2)ccc1F,-2.38%
21,O=C(NC1CCCN(c2ccc(C(F)(F)F)cn2)C1)c1cc(Cl)ccc1F (centres unmarked),12.4%
22,CCC(=O)N1CCc2cc(S(=O)(=O)NCCC(=O)NC3CCCCCC3)ccc21,-2.16%

row,Compound,"hERG current change (%, negative = inhibition) at 1uM"
1,C=CCN1C(=O)C(CC(=O)O)SC1=Nc1ccc(N=Nc2ccccc2)cc1.N (centres unmarked),12.2%
2,COc1ccc(S(=O)(=O)N2Cc3ccccc3CC2C(=O)Nc2nccs2)cc1OC (centres unmarked),3.08%
3,C=CCNC(=O)N1C2=NC(C(=O)OC)=C(C(=O)OC)[C@@H]3N(Cc4ccccc4)c4ccccc4[C@]23C[C@H]1C(=O)OC,11.4%
4,Cc1cccc(N2CCN(C(=O)CCCOc3ccccc3)CC2)c1C,-0.828%
5,CCCCNC(=O)c1ccc(/C=C2\Oc3ccccc3N(C)C2=O)cc1,-3.85%
6,CCOC(=O)N1CCc2c(sc(NC(=O)CN3CCN(C)CC3)c2C(=O)Nc2ccccc2)C1,-85.6%
7,CC1(C)CC(=O)c2c(-c3cccs3)n[nH]c2C1,-16.7%
8,COc1ccccc1/C=C/C(=O)Nc1cccc(S(=O)(=O)N2CCOCC2)c1,9.15%
9,COC(=O)c1cc2sccc2n1CC(=O)Nc1cccc(SC)c1,17.5%
10,Cc1cccc(NS(=O)(=O)c2cccc(C(=O)N3CCCC3)c2)c1,18.8%
11,O=C1c2cc(N3CCCC3)c([N+](=O)[O-])cc2C(=O)N1c1ccccc1,10.1%
12,CCCCCN1N=C(C)CC1=O,3.51%
13,COc1ccc(N2CC(C(=O)N3CCCC(C)C3)CC2=O)cc1 (centres unmarked),5.51%
14,O=C(Cn1c2ccc(F)cc2c2nc3n(c(=O)c21)CCS3)Nc1ccccc1F,14.6%
15,O=c1c2c3nc4ccccc4nc3n(/N=C/c3ccccn3)c2ncn1-c1ccccc1,16.8%
16,Cc1nn(C(C)C(=O)Nc2sc3c(c2C#N)CCCC3)c(C)c1[N+](=O)[O-] (centres unmarked),17%
17,COc1ccccc1-c1cc(C(=O)NN)[nH]n1,11.9%
18,CN=C1SC(C(=O)Nc2ccccc2Cl)CC(=O)N1c1ccc(OC(F)(F)Cl)cc1 (centres unmarked),20.3%
19,Cc1ccc(CNC(=O)C(N=C2NS(=O)(=O)c3ccccc32)C(C)C)cc1 (centres unmarked),7.38%
20,COc1cnc(-c2cccc(C(F)(F)F)c2)[nH]c1=O,7.01%
